From article PMC4336329 (PLoS ONE, 2015)
Hit rate of the full screen: of about 310,000 compounds, about 2,200 (0.71%) showed an effect of 50% or more. The effect is printed as a negative number. Some of the results follow.

Molecular target: human ether-à-go-go-related gene (hERG) potassium channel (human, UniProt Q12809)
Test: primary screen, population patch clamp on CHO cells stably expressing hERG

Chain of human ether-à-go-go-related gene (hERG) potassium channel (Q12809 whole entry, looked up): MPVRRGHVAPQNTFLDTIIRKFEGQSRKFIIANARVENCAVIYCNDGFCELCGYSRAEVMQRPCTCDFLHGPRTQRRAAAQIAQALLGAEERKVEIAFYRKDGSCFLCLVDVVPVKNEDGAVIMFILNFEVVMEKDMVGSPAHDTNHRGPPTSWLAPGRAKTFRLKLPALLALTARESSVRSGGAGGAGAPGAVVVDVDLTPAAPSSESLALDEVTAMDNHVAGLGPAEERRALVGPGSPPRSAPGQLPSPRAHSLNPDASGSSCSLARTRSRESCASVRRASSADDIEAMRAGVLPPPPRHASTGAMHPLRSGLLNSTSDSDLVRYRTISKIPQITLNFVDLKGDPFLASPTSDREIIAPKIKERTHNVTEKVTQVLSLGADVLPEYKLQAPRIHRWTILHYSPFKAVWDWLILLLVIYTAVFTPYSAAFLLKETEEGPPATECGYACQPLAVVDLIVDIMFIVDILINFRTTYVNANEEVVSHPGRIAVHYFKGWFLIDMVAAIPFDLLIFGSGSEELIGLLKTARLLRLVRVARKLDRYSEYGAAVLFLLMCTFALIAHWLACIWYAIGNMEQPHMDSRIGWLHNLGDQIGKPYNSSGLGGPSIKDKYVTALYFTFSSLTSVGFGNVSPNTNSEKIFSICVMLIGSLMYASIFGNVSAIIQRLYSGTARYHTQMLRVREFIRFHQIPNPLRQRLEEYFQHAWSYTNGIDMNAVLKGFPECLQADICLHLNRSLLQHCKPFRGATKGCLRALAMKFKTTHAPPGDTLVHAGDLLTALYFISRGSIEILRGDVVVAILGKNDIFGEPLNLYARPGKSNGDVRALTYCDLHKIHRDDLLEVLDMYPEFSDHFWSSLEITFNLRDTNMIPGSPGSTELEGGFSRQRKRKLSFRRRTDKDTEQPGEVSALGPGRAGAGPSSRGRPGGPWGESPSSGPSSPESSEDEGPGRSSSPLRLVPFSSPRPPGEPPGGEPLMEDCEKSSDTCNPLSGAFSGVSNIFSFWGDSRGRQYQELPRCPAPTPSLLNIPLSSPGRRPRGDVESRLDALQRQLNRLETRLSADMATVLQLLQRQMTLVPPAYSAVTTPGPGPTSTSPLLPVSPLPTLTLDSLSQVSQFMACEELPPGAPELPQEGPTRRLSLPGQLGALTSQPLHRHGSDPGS

Structure (SMILES) | hERG current change (%, negative = inhibition) at 1uM
CN(C)C=O.O=[N+]([O-])c1cccc(COc2ncnc3cc([N+](=O)[O-])ccc23)c1 | 0.401%
Cc1cc(CNC(=O)CC2C(=O)NCCN2CC(c2ccccc2)c2ccccc2)on1 (centres unmarked) | 12.4%
CN(C)C(CNc1ncnc2sccc12)c1ccccc1 (centres unmarked) | 12.7%
Nc1nc(-c2ccccc2)cn1N | 12.5%
CCOc1ccc(-n2c(Cc3cc(=O)[nH]c(=O)[nH]3)nnc2SC(C)C(=O)OC)cc1 (centres unmarked) | 7.63%
COc1cc(OC)cc(C(=O)N2CCN=C2SCc2cccnc2)c1 | -1.17%
CCC(CC)C(=O)c1c[nH]c(C(=O)NCc2ccco2)c1 | -6.01%
COc1ccc(NC(=O)C2C3C=CC4(O3)C2C(=O)N(CCN2CCCCC2)C4C(=O)NC2CCCC(C)C2C)cc1 (centres unmarked) | 20%
Cc1ccc(NC(=O)COCC(=O)Nc2ccc(C)cc2)cc1 | 2.38%
C/C(=N/NC(=O)CN1CCN(S(=O)(=O)c2ccc(C)cc2)CC1)c1ccco1 | -17.3%
O=C(/C=C/c1ccc([N+](=O)[O-])cc1)NCC1CCCO1 (centres unmarked) | -5.23%
COC(=O)c1cc2c(C(F)(F)F)nn(C)c2s1 | 15.5%
CN1/C(=C/C=C(/C#N)C(N)=O)C(C)(C)c2ccccc21 | -3.87%
Cc1ccccc1OCC(=O)Nc1ccc(C(=O)Nc2ccccc2C(=O)O)cc1 | 6.07%
COc1ccc(N(C(=O)Cc2cccs2)C(C(=O)NC2CCCC2)c2ccncc2)cc1 (centres unmarked) | 12%
CCCn1nnnc1COc1ccc(C(N)=O)cc1 | 13.5%
Cc1sc2ncnc(N3CCC(C(=O)Nc4ccc(S(N)(=O)=O)cc4)CC3)c2c1C | 0.338%
COc1ccc(C2CC(c3ccccc3)=NN2C(=O)COC(=O)c2ccc(S(C)(=O)=O)cc2)cc1 (centres unmarked) | 9.28%
Cc1cccc(NS(=O)(=O)c2ccc3[nH]c(=O)cc(C(=O)O)c3c2)c1 | 9.99%
CC(=O)Oc1cc(O)c2c(=O)c(OC(C)=O)c(-c3ccc(OC(C)=O)c(OC(C)=O)c3)oc2c1 | 12.5%
C=Cn1ccnc1P(=S)(c1nccn1C=C)C1CCCCC1 | -8.48%
CC(NC(=S)Nc1ccc(S(N)(=O)=O)cc1)c1ccc2c(c1)OCO2 (centres unmarked) | 1.61%

Structure (SMILES) | hERG current change (%, negative = inhibition) at 1uM
COC(=O)COC(=O)CC(CC(N)=O)c1ccccc1 (centres unmarked) | 14.5%
O=C(/C=C/c1cccs1)N1CCC2(CC1)Oc1ccc(Cl)cc1C(=O)C21CC(c2cccnc2)=NO1 (centres unmarked) | 12.1%
O=C(CCCCCCCCN1C(=O)c2ccccc2C1=O)N1CCOCC1 | 10.2%
COc1ccc(OCc2nnc(SCC(=O)N3CCCC3)o2)cc1 | 13.6%
Nc1nnc(-c2ccco2)s1 | 11.3%
O=C(N/N=C/c1cc(Br)ccc1O)c1ccccc1Cl | 8.01%
O=C(C1c2ccccc2C(=O)N2CCc3ccccc3C12)N1CCC2(CC1)OCCO2 (centres unmarked) | 6.89%
Cc1ccc(C(=O)COC(=O)Cc2ccccc2)cc1 | 7.96%
Cc1ccc(OCC(=O)c2ccc3c(c2)CCCC3)cc1C | 8.51%
O=C(Nc1ccc(F)cc1)c1cccnn1 | 8.48%
CCOc1c(S(=O)(=O)NC2CC(C)(C)NC(C)(C)C2)ccc(Cl)c1Cl | 17.8%
O=C(OCC(=O)N1CCOCC1)c1ccc(F)cc1Cl | 29.1%
O=C(Nc1ccc(Cl)cn1)c1ccc2c(c1)OCCO2 | 10.4%
COc1ccc(-c2cc(-c3c(O)c(OC)c4occc4c3OC)[nH]n2)cc1 | 9.03%
Cc1nn(CC(=O)Nc2cccc(C(F)(F)F)c2)c(=O)c2cccn12 | -14.2%
O=C(CN1C(=O)S/C(=C\c2ccccn2)C1=O)Nc1ccc(F)cc1 | 13.9%
COc1ccc(C)cc1NC(=O)c1ccc2c(c1)C(=O)N(Cc1ccncc1)C2=O | -0.645%
CCCCCc1nc(N)c(C#N)c(-c2ccco2)c1CCCC | 10.5%
O=S(=O)(NC1CCCCCCC1)c1cccs1 | -18.3%
O=C(O)CCCC(=O)OCc1c(-c2ccccc2)ncc2ccccc12 | 9.82%
Cn1c(N2CCN(c3ccccn3)CC2)nc2c1c(=O)n(Cc1ccc(Cl)cc1)c(=O)n2C | 5.88%
CCc1ccc(Nc2n[n+](-c3ccccc3)c(-c3cc(OC)c(OC)cc3Br)s2)cc1.[Cl-] | -0.471%
